Source: the supplement of paper PMC3353916
± gives the standard deviation of the averaged measurements.

System: Sindbis virus TE/5'2J-GFP
Assay: percent infected (GFP+ in RFP+ ISG-expressing cells); higher = more infection (less antiviral activity)
Method: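 Confirmatory testing of 87 ISGs. Triplicate wells of BHK/HA-Zeo (control) or BHK/NZAP-Zeo (ZAP) cells were transduced with lentiviruses co-expressing a human ISG plus TagRFP, then infected 48 h later with SINV TE/5'2J-GFP (moi 5). The % GFP+ cells among RFP+ cells was measured by flow cytometry at 8 h post infection. Fluc lentivirus served as control. Three independent experiments.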

[1] = experiment: confirmatory screen 1, BHK/HA-Zeo (control)
[2] = experiment: confirmatory screen 1, BHK/NZAP-Zeo (ZAP)
[3] = experiment: confirmatory screen 2, BHK/HA-Zeo (control)
[4] = experiment: confirmatory screen 2, BHK/NZAP-Zeo (ZAP)
[5] = experiment: confirmatory screen 3, BHK/HA-Zeo (control)
[6] = experiment: confirmatory screen 3, BHK/NZAP-Zeo (ZAP)
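Note: Interferon-defective BHK-21 derivatives, ZAP line overexpressing the rat ZAP N-terminal zinc finger domain fused to Zeocin resistance, GFP scored within live singlet TagRFP+ cells.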

Row | Substance | percent infected [1] [%] | percent infected [2] [%] | percent infected [3] [%] | percent infected [4] [%] | percent infected [5] [%] | percent infected [6] [%]
1 | STAT3 (no sequence given) | 88.5 ± 5.8 | 69 ± 2.6 | 94.9 ± 0.33 | 94.94 ± 0.58 | 95.31 ± 0.41 | 94.87 ± 0.3
2 | MAAGGPGAGSAAPVSSTSSLPLAALNMRVRRRLSLFLNVRTQVAADWTALAEEMDFEYLEIRQLETQADPTGRLLDAWQGRPGASVGRLLELLTKLGRDDVLLELGPSIEEDCQKYILKQQQEEAEKPLQVAAVDSSVPRTAELAGITTLDDPLGHMPERFDAFICYCPSDIQFVQEMIRQLEQTNYRLKLCVSDRDVLPGTCVWSIASELIEKRCRRMVVVVSDDYLQSKECDFQTKFALSLSPGAHQKRLIPIKYKAMKKEFPSILRFITVCDYTNPCTKSWFWTRLAKALSLP [MYD88] | 76.9 ± 6.5 | 31.5 ± 3.7 | 91.74 ± 0.51 | 90.709 ± 0.089 | 84.9 ± 1.7 | 82.1 ± 1.9
